# Data reported in PubChem BioAssay (NCATS).
# The inconclusive results got no clear call from the source; some entries with a clear call stand among them for comparison. No potency is given beside an inconclusive call; the fits are too rough. The source made the active and inactive calls. The call rests on the fitted dose curve; in most records, active means well fitted curve in the direction sought with a large enough effect; inconclusive means small, poorly fitted or top-dose-only effect, or another doubt; inactive means no such curve, though single readings can be large; an effect the other way counts as inactive or inconclusive.
# Columns and labels:
# [1] = target: Rap guanine nucleotide exchange factor 3 (Homo sapiens) (UniProt O95398); assay: Confirmatory qHTS for antagonist of cAMP-regulated guanine nucleotide exchange factor 3 (EPAC1) (AID 1645880); conditions: EPAC1 Rap1B-BODIPY-GDP exchange, fluorescence; series mostly up to 115 µM; further: nearly all actives have a fitted effect of over 55% in size
# Chain of UniProt O95398 (O95398 whole entry, looked up): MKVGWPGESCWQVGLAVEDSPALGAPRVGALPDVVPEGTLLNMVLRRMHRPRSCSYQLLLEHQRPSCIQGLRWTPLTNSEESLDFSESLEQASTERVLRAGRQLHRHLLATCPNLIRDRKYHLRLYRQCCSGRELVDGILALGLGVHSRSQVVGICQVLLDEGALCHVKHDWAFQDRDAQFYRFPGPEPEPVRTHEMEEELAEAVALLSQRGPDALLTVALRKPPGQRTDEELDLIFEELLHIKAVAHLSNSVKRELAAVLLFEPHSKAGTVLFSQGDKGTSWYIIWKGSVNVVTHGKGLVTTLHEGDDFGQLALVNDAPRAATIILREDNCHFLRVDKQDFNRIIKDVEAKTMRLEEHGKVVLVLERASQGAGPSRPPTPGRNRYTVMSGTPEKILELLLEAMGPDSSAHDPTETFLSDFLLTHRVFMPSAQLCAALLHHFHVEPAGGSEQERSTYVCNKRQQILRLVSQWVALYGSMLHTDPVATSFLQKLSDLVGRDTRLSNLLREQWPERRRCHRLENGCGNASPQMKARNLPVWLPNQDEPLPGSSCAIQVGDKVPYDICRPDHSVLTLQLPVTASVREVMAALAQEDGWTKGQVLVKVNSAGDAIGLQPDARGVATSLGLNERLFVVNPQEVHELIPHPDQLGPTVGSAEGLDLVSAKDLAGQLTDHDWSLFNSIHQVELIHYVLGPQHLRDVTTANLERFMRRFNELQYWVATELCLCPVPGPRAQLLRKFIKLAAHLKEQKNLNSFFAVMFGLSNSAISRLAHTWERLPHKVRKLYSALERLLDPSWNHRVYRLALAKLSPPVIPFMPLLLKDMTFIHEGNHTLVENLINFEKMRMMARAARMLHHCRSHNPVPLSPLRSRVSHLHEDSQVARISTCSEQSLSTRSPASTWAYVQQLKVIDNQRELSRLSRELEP
# Outline: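 Nucleotide exchange uses 100 nM EPAC1, 250 nM RAP1B-BODIPY-GDP and 50 uM GDP, with compounds in a concentration-titration series. After 5 min at room temperature, fluorescence (480 nm ex/540 nm em) is read every 5 min for 30 min. Data are normalized to control ATA and DMSO.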
# [2] = target: Rap guanine nucleotide exchange factor 4 (Homo sapiens) (UniProt Q8WZA2); assay: Confirmatory qHTS for antagonist of cAMP-regulated guanine nucleotide exchange factor 4 (EPAC2) (AID 1645885); conditions: activity change, negative = inhibition: at 12.7 µM (top of the series) unless noted; further: nearly all actives have a fitted effect of over 25% in size
# Chain of UniProt Q8WZA2 (Q8WZA2 whole entry, looked up): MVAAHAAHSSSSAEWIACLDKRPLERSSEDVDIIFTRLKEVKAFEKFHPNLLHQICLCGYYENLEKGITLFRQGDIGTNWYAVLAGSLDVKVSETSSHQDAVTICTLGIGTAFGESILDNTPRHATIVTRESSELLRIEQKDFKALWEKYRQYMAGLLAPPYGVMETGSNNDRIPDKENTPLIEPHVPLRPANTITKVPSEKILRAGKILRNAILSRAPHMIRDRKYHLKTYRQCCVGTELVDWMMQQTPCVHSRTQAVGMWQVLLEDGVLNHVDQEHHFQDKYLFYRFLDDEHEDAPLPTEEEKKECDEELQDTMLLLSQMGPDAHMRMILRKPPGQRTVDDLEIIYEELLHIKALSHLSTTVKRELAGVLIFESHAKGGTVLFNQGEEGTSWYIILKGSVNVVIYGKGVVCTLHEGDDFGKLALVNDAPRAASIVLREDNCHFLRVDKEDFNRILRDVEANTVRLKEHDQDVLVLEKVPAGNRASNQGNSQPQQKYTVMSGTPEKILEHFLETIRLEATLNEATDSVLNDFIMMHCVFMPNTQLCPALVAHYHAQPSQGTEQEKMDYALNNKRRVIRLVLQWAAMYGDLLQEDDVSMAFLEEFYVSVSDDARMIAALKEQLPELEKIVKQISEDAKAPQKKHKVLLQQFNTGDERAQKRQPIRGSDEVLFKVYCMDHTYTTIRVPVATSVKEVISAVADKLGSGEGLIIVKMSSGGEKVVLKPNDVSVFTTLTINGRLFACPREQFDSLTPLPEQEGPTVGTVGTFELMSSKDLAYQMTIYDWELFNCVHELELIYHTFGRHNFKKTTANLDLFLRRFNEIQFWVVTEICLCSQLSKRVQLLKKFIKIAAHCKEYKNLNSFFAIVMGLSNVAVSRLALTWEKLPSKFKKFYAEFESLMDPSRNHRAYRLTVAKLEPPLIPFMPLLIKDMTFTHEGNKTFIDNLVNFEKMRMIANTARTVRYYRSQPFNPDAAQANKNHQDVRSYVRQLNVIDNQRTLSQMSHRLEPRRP
# [3] = target: Rap guanine nucleotide exchange factor 3 (Homo sapiens) (UniProt O95398); assay: Counterscreen qHTS for agonist of cAMP-regulated guanine nucleotide exchange factor 3 (EPAC1) (AID 1645889); conditions: EPAC1 Rap1B-BODIPY-GDP exchange, fluorescence; series mostly up to 154 µM; further: nearly all actives have a fitted effect of over 40% in size
# Outline: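 Rap1B–BODIPY-GDP (250 nM) with 50 uM GDP; compounds pin-transferred to 9.74 nM–152 uM final (activator) or from 7.32 nM upwards (inhibitor). Fluorescence Ex/Em 480/540 nm read at 5 and 30 min, then after adding cAMP or buffer, at room temperature.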
# Potency means the concentration at half of the fitted maximal effect; tags describe the fitted curve by direction and shape.
SMILES,Potency [1],Potency [2],Potency [3]
COc1ccc(S(=O)(=O)N2C(=O)/C(=C3\SC(N)=NC3=O)c3ccccc32)cc1,inactive,inactive,"inconclusive [activator, full curve, poor fit]"
NS(=O)(=O)c1ccc(N/N=C/c2ccc(C(=O)O)cc2)c([N+](=O)[O-])c1,"inconclusive [inhibitor, partial curve]","inconclusive [inhibitor, partial curve]",inactive
CCCCNC(=O)C[C@@H]1C[C@@]2(C(=O)OC)CCCCC=C2N(Cc2cccc3ccccc23)C1=O,"inconclusive [inhibitor, partial curve]","inconclusive [inhibitor, partial curve, poor fit]","inconclusive [activator, partial curve, poor fit]"
Cc1nn(C(=O)c2ccco2)c(C)c1Sc1ccccc1,inactive,active: 10.7 µM,inactive
Nc1c2c(=O)[nH]c(O)cc2nn1-c1ccccc1,"inconclusive [inhibitor, partial curve, poor fit]",inactive,"inconclusive [activator, full curve, poor fit]"
O=c1c2ccccc2nc(N/N=C/c2c(O)ccc3ccccc23)n1O,"inconclusive [inhibitor, partial curve]",inactive,"inconclusive [activator, full curve, poor fit]"
COc1cccc(/C=C2\SC(=S)N(NS(=O)(=O)c3ccccc3)C2=O)c1OC,active: 33.8 µM,active: 37.9 µM,inactive
